From PubChem BioAssay AID463173 (ICCB-Longwood Screening Facility, Harvard Medical School, 2010) come the findings set out here.

The campaign covered roughly 52,000 compounds. About 4,300 (8.3%) were called active. Rule as the data show it: active = survival mostly below about 52% (no sharp cut-off); inactive = mostly above about 56%. The list shows a part of the results.

The assay relates to DeltatarO mutant. Kind of assay: S. aureus survival, RN4220 and DeltatarO strains – OD600, teichoic acid synthesis inhibitors, primary screen (AID 463173). As to conditions: S. aureus RN4220 wild type/DeltatarO growth, OD600, 18 h, hits give low values, screened at 18.75 µg/mL (by protocol).
As for `CCN(CCCNC(=O)c1cc2c(=O)n(C)c3ccccc3c2s1)c1ccccc1`, the survival is inactive: 57%.

As for `CCc1ccccc1Nc1nn2c(=O)c3ccc(C(=O)NC(C)C)cc3nc2s1`, the survival is inactive: 75%.

With `C#CCn1c(O)c(N=NC(=O)Cn2nnc(-c3ccccc3)n2)c2cc(Br)ccc21`, the survival was inactive: 99%.

As for `CC(=O)Nc1ccc2nc(SCc3ccccc3C#N)sc2c1`, the survival is inactive: 74%.

As to `O=C(Cn1c(=O)n(Cc2ccco2)c(=O)c2oc3ccccc3c21)Nc1ccccc1`, the survival was inactive: 67%.

As to `COc1ccc(N2Cc3ccccc3C2=O)cc1`, the survival was inactive: 95%.

`COc1cccc(NC(=O)C2CCC(CNS(=O)(=O)c3csc(C(N)=O)c3)CC2)c1` (stereo not given): the survival is inactive: 113%.

Regarding `CC(=O)c1ccc(NC(=O)CSc2nc(=O)n(Cc3ccccn3)c3c2CCC3)cc1`, the survival is inactive: 67%.

As for `O=C(O)C(Cc1c[nH]c2ccccc12)Nc1ncnc2c1oc1ccccc12` (stereo not given), the survival is inactive: 76%.

With `CCOCCCNC(=O)c1ccc2c(=O)n(CCc3ccccc3)c(=O)[nH]c2c1`, the survival was inactive: 74%.

For the compound `CCc1ccc2oc(-c3cc(NC(=O)c4cc(OC)c(OC)c(OC)c4)ccc3O)nc2c1`, the survival is inactive: 73%.

For the compound `COc1cccc(N2CCN(C(=O)c3cnn(-c4ccccc4Cl)c3C3CCN(C(=O)OC(C)(C)C)CC3)CC2)c1`, the survival is inactive: 112%.

For `CCC(C)NC(=O)c1cc2n(n1)CCCN(Cc1ccc(C)cc1)C2=O` (stereo not given), the survival is inactive: 74%.

Regarding `Cc1ccc(S(=O)(=O)C(CNC(=O)C(=O)NCCc2ccc(Cl)cc2)c2ccco2)cc1` (stereo not given), the survival is inactive: 128%.

As for `Cc1ccc(N2CCN(C(=O)c3cccn4c(=O)c5ccc(Cl)cc5nc34)CC2C)cc1` (stereo not given), the survival was inactive: 83%.

As for `CC(=O)Nc1ccc(N=NN2CCCCC2)cc1`, the survival was inactive: 104%.

Turning to `O=C1CCC(NC(=O)OCc2ccccc2)(C(=O)O)O1` (stereo not given), the survival is inactive: 83%.

For the compound `Cc1ccc(NS(=O)(=O)c2ccc3oc(=O)c4ncn(C)c4c3c2)cc1C`, the survival was inactive: 74%.

For `COc1ccc(CCNc2ncnc3c2cnn3-c2ccc(C)c(Cl)c2)cc1`, the survival was inactive: 76%.

Take `O=C(CCC1N=C2c3ccccc3N=C(SCc3ccc(Cl)cc3)N2C1=O)NCc1cccs1` (stereo not given): the survival is active: 47%.

For the compound `COc1ccc(OCC(O)Cn2c(=N)n(CCN3CCCCC3)c3ccccc32)cc1` (stereo not given), the survival was inactive: 46%.

Take `CCC(=O)N1CCc2cc(S(=O)(=O)NC(CC(C)C)C(=O)Nc3cccc(C)c3C)ccc21` (stereo not given): the survival was inactive: 73%.

Regarding `COc1ccccc1C(=O)n1nc(-c2ccccc2)nc1NCc1ccc(Cl)cc1`, the survival is inactive: 56%.

For `O=C(CCc1ccccc1)NC1CC(=O)N(c2cccc(F)c2)C1` (stereo not given), the survival was inactive: 74%.

In the case of `CN(C)c1ccc(CNC(=O)CN2C(=O)C3CCCCN3c3ccc(C(=O)N4CCCC4)cc32)cc1` (stereo not given), the survival is inactive: 82%.

Regarding `Cc1cc(NS(=O)(=O)c2ccc(NC(=O)COc3ccccc3Br)cc2)no1`, the survival is inactive: 67%.

In the case of `Cc1cc(C)cc(NC(=O)CSc2ccc(-c3cccs3)nn2)c1`, the survival is inactive: 73%.

Consider `CSc1ccccc1S(=O)(=O)C(C)(C)C`, for which the survival was inactive: 75%.

With `Cc1ccc(Nc2nc(N)nc(CSc3nc4ccccc4s3)n2)cc1`, the survival was active: 25%.

For `COc1ccc(C(CNC(=O)c2oc3cc(C)c(C)cc3c2C)N2CCCCC2)cc1` (stereo not given), the survival is inactive: 98%.

For `CCn1cc(C(=O)N2CCN(c3ccccc3)CC2)c(=O)c2cc(S(=O)(=O)N(C)C)ccc21`, the survival is inactive: 99%.

`O=C(Cc1ccc(F)cc1)NCCc1csc2nc(-c3ccccc3F)nn12`: the survival is inactive: 83%.

As to `COc1ccc(CCNS(=O)(=O)c2c(C)nc3sccn3c2=O)cc1OC`, the survival is inactive: 64%.

For `CC(CCc1ccccc1)NC(=O)c1ccco1` (stereo not given), the survival was inactive: 77%.

Turning to `CCOc1ccc(NC(=O)Cn2nnc(-c3nc(-c4ccncc4)no3)c2N)cc1`, the survival is inactive: 88%.

For the compound `CCc1ccc(NCc2cc3cc4c(cc3n(CC(=O)Nc3ccccc3C)c2=O)OCCO4)cc1`, the survival was inactive: 80%.

`Cc1ccccc1NC(=O)/C(C#N)=C/c1ccc(Cl)cc1Cl`: the survival is active: 32%.

Regarding `Cc1nn2c(C)c(C(=O)NCCc3ccccc3)cnc2c1-c1ccccc1`, the survival was inactive: 81%.

Consider `CCOC(=O)c1ccc(NC(=O)CC(=O)Nc2ccc3nc4n(c(=O)c3c2)CCCCC4)cc1`, for which the survival is inactive: 104%.

With `O=C(NCc1ccc(F)cc1)C(=O)NCC(c1ccc2c(c1)OCO2)N1CCOCC1` (stereo not given), the survival was inactive: 69%.

`COc1ccc(NC(=O)C2CCCN(S(=O)(=O)c3c(C)[nH]c(=O)[nH]c3=O)C2)c(OC)c1` (stereo not given): the survival was inactive: 141%.

`Cc1cccc(-c2nc3nc(C)cc(NC(C)c4ccccc4)n3n2)c1` (stereo not given): the survival is inactive: 86%.

As to `COc1cc(NS(=O)(=O)c2ccc(NC(=O)c3ccc(Cl)cc3Cl)cc2)nc(OC)n1`, the survival was inactive: 98%.

With `COCCCNC(=O)c1cnc2sc(N3CCCCC3)nn2c1=O`, the survival was inactive: 77%.

Regarding `CNC(=O)c1c(NC(=O)/C=C/c2ccccc2)sc2c1CCC2`, the survival is inactive: 87%.

`CCOCCCN=C1Sc2nc3cc4c(cc3cc2CN1CC1CCCO1)OCO4` (stereo not given): the survival is inactive: 103%.

Take `CSc1ccc(CCNC(=O)CCCn2c(=O)c3cccn3c3ccccc32)cc1`: the survival was active: 42%.

On to `CCOc1ccc(C(=O)Nc2cc3c(cc2N2CCCC2)n(C)c(=O)c(=O)n3C)cc1OCC`, for which the survival was inactive: 100%.

For the compound `CSc1ncc2c(n1)-c1ccccc1N(Cc1ccccc1)S2(=O)=O`, the survival was inactive: 88%.

For `O=C1c2[nH]nc(-c3ccc(F)cc3)c2C(c2ccccc2F)N1c1ccccc1` (stereo not given), the survival is active: 10%.

As to `Cc1ccc2[nH]c3c(=O)n(CC(=O)Nc4ccc(Br)cc4C)ncc3c2c1`, the survival is inactive: 64%.

On to `O=C(NCC1CCN(Cc2ccccc2F)CC1)Nc1ccc(F)c(Cl)c1`, for which the survival was inactive: 100%.

As to `Cc1ccnc(NC(=O)COc2ccc(Cl)cc2Cl)n1`, the survival was inactive: 111%.

In the case of `COc1ccc(-c2nc3sc(CCNS(=O)(=O)c4ccccc4)c(C)n3n2)cc1`, the survival was inactive: 64%.

`CCCOc1ccc(C(=O)Nc2cc3c(cc2N2CCCCC2)n(C)c(=O)n3C)cc1`: the survival was inactive: 67%.

For `Cc1ccc2oc(C(=O)Nc3ccc(S(=O)(=O)Nc4nccc(C)n4)cc3)cc(=O)c2c1`, the survival was inactive: 56%.

In the case of `COc1ccc(Br)cc1CNC(=O)CN1C(=O)c2cccnc2Oc2ccc(C)cc21`, the survival is inactive: 85%.

Consider `CCN(CC)CCCNc1nc(C)nc2c1nnn2Cc1ccccc1`, for which the survival is inactive: 94%.

For `CC(C)c1ccc(N(CC(=O)O)S(=O)(=O)c2ccc3[nH]c(=O)c(=O)[nH]c3c2)cc1`, the survival was inactive: 144%.

With `Cc1ccc(S(=O)(=O)Cc2nc(-c3ccc(C(=O)NCCCOC(C)C)cc3)oc2C)cc1`, the survival was inactive: 72%.

`COc1ccc(Oc2nc3c(c(=O)n(Cc4ccc(Br)cc4)c(=O)n3C)n2C)cc1`: the survival was inactive: 89%.

For `COc1ccc(NC(=O)c2nc(-c3ccc(C)cc3)n3c2CCCCC3)cc1`, the survival was inactive: 55%.

Regarding `CCSc1nc2ccccc2c(OCc2ccccc2Cl)c1C(=O)OC`, the survival was inactive: 64%.

As to `O=C(c1ccc(F)cc1)n1nc(-c2cccnc2)nc1NCc1ccccc1`, the survival was inactive: 71%.

Take `COc1ccc(-n2ccnc(NCCc3ccccc3)c2=O)cc1OC`: the survival was inactive: 102%.

Turning to `CC(C)(C)c1ccc(C(=O)Nc2c(C(=O)c3ccc(F)cc3)oc3ccccc23)cc1`, the survival was inactive: 95%.

On to `Cc1nn(C(C)C(=O)Nc2ccccc2C(F)(F)F)c(=O)c2c1sc1ccccc12` (stereo not given), for which the survival is inactive: 107%.

`Cc1nc2nc(CNC(=O)c3cccc(F)c3)nn2c(C)c1CCC(=O)Nc1cccc(Cl)c1`: the survival was inactive: 110%.

On to `Cc1ccc(N(CC(C)C)S(=O)(=O)c2nnc(NC(=O)C(C)C)s2)cc1`, for which the survival was inactive: 72%.

Turning to `COc1ccccc1CNC(=O)COCc1cc(-c2cccs2)on1`, the survival was inactive: 69%.

As to `CCOC(=O)C1=NN(c2ccccc2)C(=O)C1`, the survival was inactive: 65%.

As to `Cn1c(-c2ccccc2)nc2cc(N)ccc21`, the survival was inactive: 97%.

Take `COC(=O)CCC/C=C1/SCC(NC(=O)c2ccccc2)/C1=N/O` (stereo not given): the survival was inactive: 96%.

With `Fc1ccc(Nc2nc3ccccc3n3cnnc23)c(F)c1`, the survival is inactive: 56%.

`CCC(=O)N1CCc2cc(S(=O)(=O)NC(Cc3ccccc3)C(=O)O)ccc21` (stereo not given): the survival is active: 25%.

With `COc1ccc(NC(=O)CSc2nc3ccccc3c(=O)n2CCC(=O)NC2CCCCC2)c(OC)c1`, the survival is inactive: 75%.

In the case of `O=C(CCCCCn1c(=O)c2sccc2n(Cc2ccccc2Cl)c1=O)NCc1ccc2c(c1)OCO2`, the survival was inactive: 84%.

As for `Cc1ccc(S(=O)(=O)Nc2ccc3nc(-c4cccc(Cl)c4)oc3c2)cc1`, the survival was active: 28%.

For the compound `COc1ccc(CCNC(=O)C(C)n2nc(C)c3sc4ccccc4c3c2=O)c(OC)c1` (stereo not given), the survival is inactive: 58%.

Regarding `Cc1ccc2oc(-c3ccc(Cl)c(NC(=O)c4cc5ccccc5o4)c3)nc2c1`, the survival is active: 39%.

For `Cc1ccc(CNC(=O)c2cnc3c(-c4ccc(F)cc4)c(C)nn3c2C)o1`, the survival was inactive: 94%.

Take `COc1ccc(Cl)cc1NC(=O)c1cnc2sc(N3CCOCC3)nn2c1=O`: the survival was inactive: 80%.

Take `CN1CCN(CCNC(=O)c2cnn(-c3ccc(Cl)cc3)c2C2CCN(C(=O)OC(C)(C)C)CC2)CC1`: the survival is inactive: 69%.

`CCOC(=O)c1c(NC(=O)c2nc3n(n2)C(C(F)F)CC(C)N3)sc2c1CCCC2` (stereo not given): the survival was inactive: 100%.

As to `CCOc1ccc(-c2nonc2NC(=O)c2oc3ccc(CC)cc3c2C)cc1`, the survival was inactive: 108%.

As to `CCN(C(=O)C1CCN(S(=O)(=O)c2c(C)noc2/C=C/c2ccc(C)cc2)CC1)c1cccc(C)c1`, the survival was inactive: 84%.

Consider `C/C(=N\NC(=O)c1ccc(N2CCCC2=O)cc1)c1ccccc1`, for which the survival was inactive: 87%.

For `COc1ccc2c(C)c(CC(=O)NCc3ccccc3Cl)c(=O)oc2c1OC`, the survival was inactive: 55%.

In the case of `CC(C)CN(CCNC(=O)CCN1N=C(c2ccccc2)CCC1=O)CC(C)C`, the survival was inactive: 84%.

On to `Cc1ccc(-c2onc(C)c2C)cc1S(=O)(=O)Nc1ccccn1`, for which the survival was inactive: 84%.
